# Reference: the supplement of paper PMC10681739
# ± gives the standard deviation of the averaged measurements. Over roughly 4,100 sequences, “arbitrary fluorescence units” has its median near 780; the highest 2% begin near 22,000. The list shows a part of the results.
# Molecular target: T1, ETS1 (UniProt P14921)
# T1 sequence: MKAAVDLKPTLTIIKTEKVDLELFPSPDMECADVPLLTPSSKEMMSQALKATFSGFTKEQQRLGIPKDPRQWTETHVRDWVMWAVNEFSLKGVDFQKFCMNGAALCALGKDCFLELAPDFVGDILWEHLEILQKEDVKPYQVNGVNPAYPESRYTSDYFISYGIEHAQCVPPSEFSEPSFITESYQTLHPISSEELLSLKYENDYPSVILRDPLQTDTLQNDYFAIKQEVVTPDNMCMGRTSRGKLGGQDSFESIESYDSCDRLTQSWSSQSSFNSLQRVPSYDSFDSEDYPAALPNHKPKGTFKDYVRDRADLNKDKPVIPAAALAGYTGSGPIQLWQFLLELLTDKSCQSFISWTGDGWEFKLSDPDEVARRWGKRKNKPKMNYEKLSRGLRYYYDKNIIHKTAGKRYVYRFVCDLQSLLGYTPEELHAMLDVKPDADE
# Assay: ETS1 binding intensity (PBM fluorescence), ETS1 alone (arbitrary fluorescence units); higher = stronger binding
# Settings: ETS1 concentration 1 nM; RUNX1 concentration 0 nM
# Procedure, shortened: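 Double-stranded Agilent 4 × 180k arrays held 36-bp genomic probes whose RUNX1 partner site was mutated, and these were incubated with 1 nM full-length recombinant human ETS1 in the absence of RUNX1 under standard PBM protocols. Bound protein was labelled with anti-ETS1 antibody (Cell Signaling Technology 14069) plus an Alexa488-conjugated secondary and read on a GenePix 4400A, with four spots printed per sequence. Binding level is reported as raw spot fluorescence intensity summarised over replicate spots.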
row,Sequence,ETS1 binding intensity
1,GGGGCCTCTGGTGAACTGGAGAGGAAATGCTGCATT,514
2,GCATCTGGGGTTCAAGTGGCCACTTCCTGCCAGCCG,4980
3,TTACGCAGTGGCTGGAGAGCGTTGGCAGGAACCCAA,329
4,TTGGGGTTCGGGCGTGTCGCGGAGCCCGGATGTAAT,479
5,TCTTCAGCAGGAAGACCCTGGTCTAGCCCCAAGCCT,457
6,GCCCCCGGAAGCTGTCGCCCCGTACGGTGTGTGCTG,2320
7,GGCAGGCTCAGCGGGCCAGGATGAGTTCTAAGCACA,314
8,GACTGGCTGAGGGAGGGGTTTAGGCTTCCGCCCCCA,580
9,TGCCAAGACTTCCCCGCGGACCCCGTAACAGCTCCA,394
10,ATTGTAAATTTCCTTTAAACGTCCCCAGCGCGCTCC,1320
11,GGCCTGCAGTCCGGGGCCGCTCGGCAGGCGGAAGCC,328
12,GTGCGGAACCTCCATTTTTAAAGGGCCAGGAAGCTT,528
13,ACGAGGTTGCTGTTTCTCCACATCCTCAACAACCTG,534
14,CTCAGTGTGATTAAAGACATGCAAGGCAGGATAGAA,398
15,GCTTGACCCCAACACCTGCTACACTTCCTGAAGACA,876 ± 88
16,ACATGGTCTCGCTTCCTGTTTACACCAGAGAAAGCT,15000
17,CCAAAAAGGAAGGAAACCAGAAAGTCACAGAATGGT,708
18,GCAGCTTCCGCGGCCCCCGCCCGGCCTGCAGCGCCA,2350
19,GGTGCCGTTAAGGCGAGGCTCCTTCTTTCCTGTGAC,417
20,TGTGCTTAGAACTCATCCTGGCCCGCTGAGCCTGCC,345
21,TCAGAACTTGGATTTGAGAGTTTCCTGTTTTCTTGA,1940
22,CCACACTGCCCCCCAAGGCGTTTCCGGGTTTTGAGG,2570
23,CTGCTACGGCAGAACGCGACGTGCTAACCGGAATCC,426
24,ACCTTCTGTTCCCTTCCTCAGACCGAAGGCGAGATG,465
25,GTTTTCCTGGTGGCCCGGCCATGCCTGACGTTTCTC,2620
26,ACCCACCCGGAAGTCCTCCTGGCCTACAAGCTCCGC,5570
27,GTTGAGTTCCGGGGGAGGTTGAGTTCCTGCGCTCAA,2560

row,Sequence,ETS1 binding intensity
1,CATAGGAAGTGCTCAGCTCTCCTCCACCTCAAGTTT,706
2,TTTTTTCCGCCCGCTTCAAACATGGCGTTCAAGCCC,4390
3,GAGCCACCGGAAACGGAGCTGCGCCCGCGCCCCGCC,9940
4,CTCTCTCCACCAGAGTCACTTATCGCTTCCTGGAGG,545
5,AGCCTCAGGGAAGTAGCGTCCCCTAGTGGCAAGAAA,379
6,CCCTTGGGGCCATGTTACACGCCAGGAAATTGAGCT,520
7,AATTCCCAGGAAGCACTCGGCAGCCATAAACTGATG,668
8,GCTTAAGGAAGGGACAACTAGAGTGAGTTACTCTGC,502
9,TGGTGGAGCTGCGCCGGGCAATCGGAAATCGGCTAC,424
10,CTTTCGCCCTTCCGCGTGCGCTTTGAACGCCCACCC,658
11,GGACTTCCTGAACTGGGAGGTCACCGACTACAACCT,10700
12,TGCTGAGTGCGCGGGGCCGGACGTCCCGAGACCGGA,431
13,TGCCACCTGCTTCCTGCCTGTGTAGCCCCAAGGGAC,8380
14,GAATGGCGGATGTGGCTGGGGAGAGAAAGCTGCAGA,3770
15,TGATGTAAACCGGACCAGCCGCTGCAGGCAAAGGAG,314
16,GCATTTACGGGCAGGAAATGAAACCCCAGAGTACAA,7680
17,TGCTCTGGCCACTGAATAACGCTTCCGTCTGAACAC,690
18,GGGCGCGACTTCCGGGGCGGCGCTTGCATCAGATTC,19500
19,CTTACGGCCTCGCGCCATGGGCAGTATCCGCCGCCA,328
20,CCCGGAGGGTTCCGGGGGTCGGCCTACGGCGCGTGC,529
21,TGCAGCGCATCCTGGGACGTGCAGGCGGTGCATGAG,1550
22,TCCTATTTTTACAGCAGTTGCACAGGAAATGAGGCG,1420
23,GACTAACGGGAAAGAAGGACGAGTACGCAGTCCCGG,413
24,ACTCCACCTACCCTCAGAACGCACTTCCTCAGAAGC,721
25,CCCGCTTCCGCGTTTTACTCGGTGCCTGCAGCGCCG,6570
26,AGTTGGTTCCTTCCGGTGGGTTTATGGGCTTGGGGT,13000
27,AACACACAACGACAGACTTATTTCCTGTTTCAGATT,6560

row,Sequence,ETS1 binding intensity
1,GGGTGCTTCCTATAAACAATGACTCATTACAGCACT,1600
2,AGTGCTGTAGGCGAGACTGCACAGGAAATAAAAAGA,1180
3,TCGCTTCCTGCTCCACTTCTCGGCGCTCACATCTCC,14200
4,GCAGTCGAGCTTCCAACATTTGGGGAAGTTGCACGA,348 ± 26
5,ACCCGGATGTCGTTGGGCAGGAACTTCGGTGAGGGC,3340
6,ACAGCCGTCATCAAAACACCAGGTCCTTCCTCGGCC,375
7,TGCCACGTCCGCCATCTTGAAACAACTGCCACTCGG,2370 ± 120
8,GCCGCCAAAAGCTGCCTGGGTGACCCGGAAACGGCA,614
9,CTCCGGGAGCCCCCAAGCGGCTTCCGGGTGCTCGCA,2130
10,CGAGGTGTCCACTCTCCTCGGCATCCGCACCTGCCC,509
11,AGCCAGCTCTGGTGAAGGGAGGAAGCCTGAGAACTG,342
12,ACGGTGCGTTTCCCCAACTACACCTCACGTCACGGA,476
13,GCAGCAAGCGCGGAACTGGGGTTTCGGCGTCTAAGT,394
14,CTCACCTCGAAGCCCAGGAGCGGCCAGGAAATGAGC,476
15,ACTGCTCAACGACACACAAGAACAGCAGGATGAGGT,420
16,TGCACCCGCCACTTCCGCATCGAACCTCCGCTTCAA,7860
17,CGCCTGAGGGCTGGTCCCCATCCTTCCTCTTAGACC,375
18,GTCACCTGTGACTTTTGGGGTGGGGGAGGAAGAAGA,389
19,AAAGTAGGTCCGGTCCGCGGGTGCAGTCGGGCATGC,462 ± 17
20,GGTGACGTCAACGCGTTCACCAGCCCGGAAGTGCGC,1230
21,GAGTTGCTTCCGGCCGTGTTGCTGGTCTGAATTGAG,19700
22,CTCCTCTGTTGTCAGCCATCACTTCCTCCCAGCCCG,1200
23,TCCCTTACCTTCCTGCTGCCACCAAAGCACCAAACC,1890
24,AACAAAGCACTCAATAGTGGCCAAACTACATCCTGG,631
25,CAAGAATGAGAAAGGAAGCTGGCGGCTGGGCAGGTG,491
26,GAGAGGTGCTTGCTGGGAGAGCTGTTCCGGCGCTCA,367
